From PubChem BioAssay AID686979 (National Center for Advancing Translational Sciences (NCATS), 2013)
The campaign covered roughly 420,000 compounds. About 50,000 (12%) were called active. Inconclusive results, whose numbers are uncertain, are shown with a selection of clear calls. Calls follow the shape of the dose curve; as a rule, active = well fitted inhibition curve with a large enough effect; inconclusive = small, poorly fitted or top-dose-only effect; inactive = flat fitted curve, though single readings scatter. Potencies of inconclusive entries are left out as doubtful fits.

experiment: qHTS for Inhibitors of human tyrosyl-DNA phosphodiesterase 1 (TDP1): qHTS in cells in presence of CPT; conditions: chicken DT40 Tdp1-/-;hTDP1 cells + 20 nM CPT, ATP luminescence, 48 h; activity change, negative = growth inhibition: at 46.2 µM (top of the series) unless noted; also: nearly all actives have a fitted effect of over 55% in size
In short: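 Chicken DT40 Tdp1-/- cells complemented with human TDP1, 400 cells/well, exposed to compounds plus 20 nM camptothecin for at least 48 h at 37 C; viability read as ATP content by CellTiter-Glo luminescence.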
% is scaled to controls: 0 for no effect and ±100 for the full control effect; potency is read from the fitted curve at half-maximal effect; tags tell the direction and shape of the fitted curve.

SMILES | Potency | activity change, negative = growth inhibition
O=C(O)c1ccccc1Nc1cc(Cl)c2nonc2c1[N+](=O)[O-] | inactive | –
Cc1ccc(-n2nc(C(=O)c3ccccc3)n3c(=O)cc(-c4ccccc4)nc23)cc1 | inactive | –
O=C(CCN1CCN(c2ccc(F)cc2)CC1)Nc1ccccc1F | inconclusive [inhibitor, partial curve, poor fit] | –
COc1ccc(/C=N/NC(=O)c2cc3c(ccc4ccccc43)o2)cc1OC | inconclusive [inhibitor, partial curve] | –
Cc1ccc(-c2cc(C(F)F)n3ncc(C(=O)N4CCN(c5ccccn5)CC4)c3n2)cc1 | inconclusive [inhibitor, single point] | –
CC(C)(C)OC(=O)N1CCC(C(=O)NNC(=O)c2ccc(Cl)cc2Cl)CC1 | inactive | –
Cc1nc(SCC(=O)Nc2sccc2C(N)=O)c2c(C)c(C)sc2n1 | active: 20.6 µM | –
CC(C)(C)NCc1cc(Cl)ccc1OCc1ccccc1F | inactive | –
COc1cc(OC)c(C2C=CC(=O)CC2)c(OC)c1 (centres undefined) | inactive | –
COc1ccc(Cn2nnc3c(=O)[nH]c(C4CCN(C(=O)c5ccc(C)cc5)CC4)nc32)cc1OC | inconclusive [inhibitor, single point] | –
O=C(c1ccccc1)c1ccc(OCC(O)CNCc2cccc(Cl)c2)cc1 (centres undefined) | inconclusive [inhibitor, single point] | –
Cc1nc(-c2cn[nH]c2-c2ccc(O)cc2O)cs1 | inactive | –
O=C(N/N=C/C=C\c1cccc([N+](=O)[O-])c1)c1cccnc1 | inconclusive [inhibitor, single point] | –
CCCn1nc(NC(=O)c2cccs2)c2cc3cc(C)ccc3nc21 | inconclusive [inhibitor, single point] | –
CCNc1c(NC(C)=O)c(=O)oc2ccccc12 | inactive | –
O=C(O)c1cccc(N2C(=O)c3cc4cccc(Br)c4cc3C2=O)c1 | inconclusive [inhibitor, partial curve, poor fit] | –
C=CCNC(=O)/C(C#N)=C\c1cc(Cl)c(OCC)c(OC)c1 | inconclusive [inhibitor, partial curve] | –
COc1ccc(C2C(C#N)=C(N)Oc3cc(O)ccc32)cc1Cl (centres undefined) | inconclusive [inhibitor, single point] | –
CC(Oc1ccc(Br)cc1)C(=O)Nc1cc(Cl)ccc1N1CCN(C)CC1 (centres undefined) | inconclusive [inhibitor, single point] | –
O=C(COc1ccc(S(=O)(=O)N2CCCCC2)cc1)NC1CCCCC1 | inconclusive [inhibitor, single point] | –
C=CCNC(=S)NN=C1CCCCCCC1 | active: 16.4 µM | –
CC1C(=O)N2CCCc3cc(NC(=O)COc4ccc(Cl)cc4)cc1c32 (centres undefined) | inconclusive [inhibitor, partial curve, poor fit] | –
Cc1cc(NC(=O)c2cc(-c3cccs3)nc3ccccc23)no1 | active: 20.6 µM | –
CC1(C(=O)Nc2ccc3c(c2)OCCO3)CCN1Cc1csc2ccccc12 (centres undefined) | inconclusive [inhibitor, partial curve] | –
Cc1ccc(NC(=O)N2C3CCCC2CC(NC(=O)C2CC2)C3)cc1 (centres undefined) | inactive | –

SMILES | Potency | activity change, negative = growth inhibition
NC(=O)C1CCCN(C(=O)c2ccc3oc(Cc4ccc(Cl)cc4)nc3c2)C1 (centres undefined) | inactive | –
Cc1ccccc1NC(=O)Cc1nc(CCl)cs1 | inconclusive [inhibitor, partial curve] | –
O=C(c1ccc(F)cc1F)N1CCN(c2n[nH]c(=O)[nH]c2=O)CC1 | inactive | –
Oc1ccc(C2C[C@H]3CC[C@@H]2C3)cc1O (some centres undefined) | active: 11.6 µM | –
O=C(Nc1ccc(NC(=O)c2ccccc2)nc1)c1ccncc1 | inconclusive [inhibitor, single point] | –
Cc1ccc(S(=O)(=O)N2CCN(C(=O)c3cc(C4CC4)nc4c3cnn4C(C)C)CC2)cc1 | inconclusive [inhibitor, single point] | –
OC(COc1ccc(Cl)cc1Cl)CN1CCc2ccccc2C1 (centres undefined) | inconclusive [inhibitor, single point] | –
CC(C)CN(C(=O)COC(=O)C12CC3CC(CC(Cl)(C3)C1)C2)c1c(N)n(Cc2ccccc2)c(=O)[nH]c1=O | inconclusive [inhibitor, single point] | –
O=C(COc1ccc(Cl)cc1)c1ccc(O)cc1O | inactive | –
Cc1ccsc1CN(C(=O)c1ccccc1)C1CCS(=O)(=O)C1 (centres undefined) | inactive | –
S=C(Nc1ccc(Cc2ccncc2)cc1)Nc1cccc(Cl)c1 | inactive | –
COc1ccc(CNCc2ccc(OC)c3ccccc23)cc1 | inconclusive [inhibitor, single point] | –
COc1ccc(CNC(=O)c2ccc(CNS(=O)(=O)c3ccc(F)cc3)cc2)cc1 | inactive | –
CC(=O)N1CCCc2cc(S(=O)(=O)Nc3ccccc3C)ccc21 | inactive | –
COC(=O)c1sccc1S(=O)(=O)N(CC(=O)NCc1ccc(F)cc1)c1ccc(Cl)cc1 | inconclusive [inhibitor, single point] | –
CC(=O)N1CCc2cc(S(=O)(=O)Nc3ccccc3N3CCN(C)CC3)ccc21 | inconclusive [inhibitor, single point] | –
CN(CCO)c1cc(N2CCN(C(=O)c3ccco3)CC2)c2nonc2c1[N+](=O)[O-] | inactive | –
COC1OC(COCc2ccccc2)C(N)C(OCc2ccccc2)C1OCc1ccccc1 (centres undefined) | inconclusive [inhibitor, single point] | –
Cc1cccc2c(=O)n3c(nc12)CCCCC3 | inactive | –
COc1ccc2[nH]c3nc(SCC(=O)NNC(=O)c4ccc(OC)c(OC)c4)nnc3c2c1 | inconclusive [inhibitor, single point] | –
CC1CCC(C(C)C)C(OP(=O)(c2ccccc2)C(O)c2ccncc2)C1 (centres undefined) | inconclusive [inhibitor, single point] | –
O=C(CCSc1ccccn1)c1ccccc1 | active: 2.31 µM | –
CCCOc1ccc(/C=C/C(=O)N2CCN(C(=O)c3ccco3)CC2)cc1OC | inconclusive [inhibitor, single point] | –
Cc1ccc(C(=O)Nc2ccc(C(=O)N3CCCCC3)cc2)cc1 | inactive | –
O=C(CSCc1c(Cl)cccc1Cl)Nc1ccc2c(c1)OCO2 | inconclusive [inhibitor, single point] | –

SMILES | Potency | activity change, negative = growth inhibition
NNC(=S)NCc1ccccc1 | inconclusive [inhibitor, single point] | –
CCOC(=O)Cc1nnc(NC(=O)C(CC)Sc2nc(C)cc(=O)[nH]2)s1 (centres undefined) | inconclusive [inhibitor, single point] | –
C=CCn1cc(C(=O)N2CCN(CC)CC2)c(=O)c2cc(S(=O)(=O)N(CC)CC)ccc21 | inconclusive [inhibitor, single point] | –
Cc1cccc(CN2CCN(C(C)C(=O)NC(C)c3ccccc3)CC2)c1 (centres undefined) | inconclusive [inhibitor, single point] | –
O=C(O)COc1ccccc1/C=N/NC(=O)c1cc(-c2ccc(Cl)cc2)nc2ccccc12 | inactive | –
CCNC(=S)NNC(=O)c1ccc(OC(F)F)cc1 | inactive | –
Cc1oc(-c2cccc(Cl)c2)nc1Cn1c(SCc2ccccc2F)nc2ccncc21 | active: 16.4 µM | –
COC(=O)C1=CN(Cc2ccc(C)cc2)C=C(C(=O)OC)C1c1cc(OC)c(OC)c(OC)c1 | active: 16.4 µM | –
Cc1ccc(/C=N/n2c(-c3ccc(Cl)cc3)n[nH]c2=S)s1 | inconclusive [inhibitor, partial curve] | –
O=C(Nc1ccc(NC(=O)c2cccs2)c(Cl)c1)c1ccco1 | – | inconclusive: -32.6% [inhibitor]
Nc1c(CC(=O)O)cccc1C(=O)c1ccc(Br)cc1 | inactive | –
CC1CCC(=C(C#N)c2nc(-c3cc4ccccc4oc3=O)cs2)CC1 (centres undefined) | inconclusive [inhibitor, single point] | –
COc1ccc(CCNC(=O)c2ccc3c(c2)N(Cc2ccccc2C)C(=O)c2ccccc2S3)cc1OC | active: 3.26 µM | –
COc1ccccc1NC(=O)CSC1=Nc2ccccc2C2=NC(CC(=O)NCc3cccs3)C(=O)N12 (centres undefined) | active: 20.6 µM | –
CCOC(=O)c1c(C)[nH]c(C(=O)C(C)Sc2ccc(Cl)cc2)c1C (centres undefined) | inconclusive [inhibitor, single point] | –
COc1ccc(CN2CCN(C(=O)c3ccc(-c4ccccc4)cc3)CC2)c(OC)c1OC | inconclusive [inhibitor, single point] | –
COCCNC(=O)c1ccc(NS(=O)(=O)c2ccc3[nH]c(=O)[nH]c3c2)cc1 | inactive | –
CCOC(=O)COc1cc(OCC(=O)OCC)c2c3c(c(=O)oc2c1)CCCC3 | inactive | –
Cc1ccccc1NC(=S)N=Nc1c(O)n(C)c2ccc(S(=O)(=O)N3CCOCC3)cc12 | active: 8.2 µM | –
Oc1ccc(Nc2nnc(-c3ccc(O)cc3)c3ccccc23)cc1 | inconclusive [inhibitor, single point] | –
CC(=O)N1CCc2cc(C(=O)CN3CCN(c4cccc(Cl)c4)CC3)ccc21 | active: 14.6 µM | –
CCc1c(C)nc(N2CCN(c3ccccc3F)CC2)[nH]c1=O | inconclusive [inhibitor, single point] | –
Cc1ccccc1NC(=O)CSc1nnc(-c2cccs2)o1 | inactive | –
Cc1ccc(S(=O)(=O)N2CCC(=O)N([C@H](COCc3ccc(Cl)c(Cl)c3)Cc3ccccc3)CC2)cc1 | inconclusive [inhibitor, single point] | –
